In test [1] the test system is HSkMC (human skeletal muscle cells). Kind of test: cytotoxicity call (relative viability < 0.9). As to conditions: 10 µM.
The subject of test [2] is HepG2. Nature of the test: cytotoxicity call (relative viability < 0.9). As to conditions: 10 µM.
The test system of test [3] is S. aureus RN4220. Kind of test: growth inhibition call (relative growth <= 0.2). Conditions: 50 µM.

This is one part of the list.

The values below come from the antibiotic and cytotoxicity screens of Wong et al. (2023).

Regarding `COc1ccc(S(=O)(=O)N(C)C[C@H]2OCCCC[C@H](C)Oc3ccc(NC(=O)Nc4ccc(C(F)(F)F)cc4)cc3C(=O)N([C@@H](C)CO)C[C@@H]2C)cc1`, the cytotoxicity call in test [1] and in test [2] was “inactive” in each case. The growth inhibition call in test [3] was “inactive”.

With `Cc1noc(C)c1NC(=O)N(C)C[C@H]1Oc2ccc(NS(=O)(=O)c3ccccc3)cc2CC(=O)N([C@@H](C)CO)C[C@@H]1C`, the cytotoxicity call in test [1] and in test [2] was “inactive” each time. For the same molecule, the growth inhibition call in test [3] is “inactive”.

As to `Cc1ccc(S(=O)(=O)Nc2ccc3c(c2)C(=O)N([C@H](C)CO)C[C@H](C)[C@@H](CN(C)S(=O)(=O)c2ccc(C)cc2)OCCCC[C@@H](C)O3)cc1`, the cytotoxicity call in test [1] and in test [2] was “inactive” in each case. Further, the growth inhibition call in test [3] is “inactive”.

`CO[C@H]1CN(C)C(=O)c2cc(NC(=O)Nc3cccc(Cl)c3)ccc2OC[C@@H](C)N(C(=O)Nc2c(C)noc2C)C[C@H]1C`: the cytotoxicity call in test [1] and in test [2] was “inactive” throughout. For the same molecule, in test [3], the growth inhibition call was “inactive”.

Regarding `C[C@H]1CN([C@@H](C)CO)C(=O)c2cc(C#CC3(O)CCCC3)cnc2O[C@H]1CN(C)S(C)(=O)=O`, the cytotoxicity call in test [1] and in test [2] was “inactive” each time. Moreover, in test [3], the growth inhibition call is “inactive”.

Regarding `C[C@@H]1CN([C@H](C)CO)C(=O)Cc2cc(NC(=O)CCCCCC(=O)Nc3ccccc3N)ccc2O[C@H]1CN(C)Cc1ccc(Cl)c(Cl)c1`, the cytotoxicity call in test [1] and in test [2] was “inactive” in each case. The growth inhibition call in test [3] is “inactive”.

Take `C[C@@H]1CN([C@H](C)CO)S(=O)(=O)c2ccc(C#Cc3ccccc3F)cc2O[C@@H]1CN(C)C(=O)Cc1cccnc1`: the cytotoxicity call in test [1] and in test [2] was “inactive” in each case. Further, the growth inhibition call in test [3] was “inactive”.

For `C[C@@H](NC(=O)C[C@H]1C=C[C@@H](NC(=O)CN2CCOCC2)[C@@H](CO)O1)c1ccccc1`, the cytotoxicity call in test [1] and in test [2] was “inactive” throughout. The growth inhibition call in test [3] was “inactive”.

Consider `C[C@H](CO)N1C[C@H](C)[C@H](CN(C)C(=O)Nc2ccccc2)OCCCC[C@H](C)Oc2ccc(NC(=O)c3ccncc3)cc2C1=O`, for which the cytotoxicity call in test [1] and in test [2] was “inactive” in each case. Also, the growth inhibition call in test [3] was “inactive”.

With `C[C@@H]1CN([C@@H](C)CO)C(=O)c2cc(NC(=O)NC3CCCCC3)ccc2O[C@@H](C)CCCCO[C@@H]1CN(C)Cc1ccc(C(F)(F)F)cc1`, the cytotoxicity call in test [1] and in test [2] was “inactive” throughout. In addition, in test [3], the growth inhibition call is “inactive”.

With `C[C@H](CO)N1C[C@H](C)[C@@H](CN(C)C(=O)C2CCCCC2)OCCCC[C@H](C)Oc2ccc(NC(=O)c3ccccc3)cc2C1=O`, the cytotoxicity call in test [1] and in test [2] was “inactive” in each case. Moreover, in test [3], the growth inhibition call is “inactive”.

As for `Cc1ccc(S(=O)(=O)N(C)C[C@@H]2Oc3ncc(C#Cc4ccc(F)cc4)cc3C(=O)N([C@H](C)CO)C[C@@H]2C)cc1`, the cytotoxicity call in test [1] and in test [2] was “inactive” in each case. The growth inhibition call in test [3] was “inactive”.

Regarding `C[C@H]1CN([C@@H](C)CO)C(=O)CCCn2nncc2CO[C@H]1CN(C)C(=O)CCCN(C)C`, the cytotoxicity call in test [1] and in test [2] was “inactive” throughout. Also, the growth inhibition call in test [3] was “inactive”.

Turning to `COc1ccc(NC(=O)N(C)C[C@@H]2OCCCC[C@@H](C)Oc3ccc(NC(=O)Nc4ccccc4)cc3C(=O)N([C@H](C)CO)C[C@H]2C)cc1`, the cytotoxicity call in test [1] and in test [2] was “inactive” throughout. Besides, the growth inhibition call in test [3] was “inactive”.

On to `C[C@H](CO)N1C[C@H](C)[C@H](CN(C)Cc2ccc(Oc3ccccc3)cc2)Oc2ccc(NC(=O)CCC(F)(F)F)cc2CC1=O`, for which the cytotoxicity call in test [1] was “inactive”. Further, the cytotoxicity call in test [2] was “active”. Further, in test [3], the growth inhibition call was “inactive”.

With `COc1ccc(S(=O)(=O)Nc2ccc3c(c2)C(=O)N([C@@H](C)CO)C[C@H](C)[C@@H](CN(C)C(=O)Nc2ccc(F)cc2)OCCCC[C@@H](C)O3)cc1`, in test [1], the cytotoxicity call was “inactive”. The cytotoxicity call in test [2] was “active”. Further, the growth inhibition call in test [3] is “inactive”.

For the molecule `COc1ccc(S(=O)(=O)N(C)C[C@H]2Oc3ccc(NS(=O)(=O)c4ccc(F)cc4)cc3CC(=O)N([C@@H](C)CO)C[C@H]2C)cc1`, the cytotoxicity call in test [1] and in test [2] was “inactive” throughout. Moreover, in test [3], the growth inhibition call is “inactive”.

Take `COc1cc(NS(=O)(=O)c2ccc(N)cc2)nc(OC)n1`: the cytotoxicity call in test [1] and in test [2] was “inactive” in each case. In addition, the growth inhibition call in test [3] was “inactive”.

For `COc1ccc(NC(=O)Nc2ccc3c(c2)C(=O)N([C@H](C)CO)C[C@@H](C)[C@H](CN(C)C(=O)C2CCCCC2)OCCCC[C@@H](C)O3)cc1`, the cytotoxicity call in test [1] was “inactive”. Also, the cytotoxicity call in test [2] was “active”. Besides, the growth inhibition call in test [3] is “inactive”.

Turning to `C[C@@H]1CN([C@H](C)CO)C(=O)c2c(c3ccccc3n2C)-c2ccccc2CO[C@H]1CN(C)Cc1cccc(O)c1`, the cytotoxicity call in test [1] and in test [2] was “inactive” each time. Moreover, the growth inhibition call in test [3] was “inactive”.

`Cc1noc(C)c1S(=O)(=O)Nc1ccc2c(c1)CC(=O)N([C@H](C)CO)C[C@@H](C)[C@H](CN(C)Cc1ccncc1)O2`: the cytotoxicity call in test [1] and in test [2] was “inactive” throughout. Further, the growth inhibition call in test [3] is “inactive”.

In the case of `Nc1cc(C(=O)N2CCCC2)ccn1`, the cytotoxicity call in test [1] and in test [2] was “inactive” in each case. Further, the growth inhibition call in test [3] was “inactive”.

For `O=C(CCCCCCC(=O)N/N=C/[C@H](O)[C@@H](O)[C@H](O)[C@H](O)CO[C@H]1O[C@H](CO)[C@H](O)[C@H](O)[C@H]1O)NO`, the cytotoxicity call in test [1] and in test [2] was “inactive” in each case. In addition, the growth inhibition call in test [3] was “inactive”.

Regarding `CSCC[C@H](NC(=O)[C@H](CCC(=O)O)NC(=O)[C@H](CCC(=O)O)NC(C)=O)C(=O)N[C@@H](CCC(N)=O)C(=O)N[C@@H](CCCNC(=N)N)C(=O)N[C@@H](CCCNC(=N)N)C(N)=O`, the cytotoxicity call in test [1] and in test [2] was “inactive” in each case. The growth inhibition call in test [3] is “inactive”.
